Data: the antibiotic and cytotoxicity screens of Wong et al. (2023)
The list shows a part of the results.

How the values were obtained:
[1] = system: HSkMC (human skeletal muscle cells); assay: cytotoxicity call (relative viability < 0.9); settings: 10 µM
[2] = system: HepG2; assay: cytotoxicity call (relative viability < 0.9); settings: 10 µM
[3] = system: S. aureus RN4220; assay: growth inhibition call (relative growth <= 0.2); settings: 50 µM

Row | SMILES | cytotoxicity call [1] | cytotoxicity call [2] | growth inhibition call [3]
1 | Cc1ccc(-c2cnc3c(c2)C(=O)N([C@H](C)CO)C[C@H](C)[C@H](CN(C)C(=O)Cc2ccncc2)O3)cc1 | inactive | inactive | inactive
2 | Nc1nnnn1-c1ccccc1 | inactive | inactive | active
3 | C[C@@H]1CN([C@H](C)CO)C(=O)Cc2cc(NC(=O)c3ccncc3)ccc2O[C@@H]1CN(C)C(=O)Nc1ccc2c(c1)OCO2 | inactive | inactive | inactive
4 | COc1ccc(S(=O)(=O)Nc2ccc3c(c2)C(=O)N([C@H](C)CO)C[C@H](C)[C@H](CN(C)S(=O)(=O)c2c(C)noc2C)O3)cc1 | inactive | inactive | inactive
5 | C[C@@H]1CN([C@@H](C)CO)C(=O)Cc2cc(NC(=O)Nc3ccc(F)cc3)ccc2O[C@H]1CN(C)S(=O)(=O)c1cn(C)cn1 | inactive | inactive | inactive
6 | COc1ccc(NC(=O)N(C)C[C@@H]2Oc3ncc(C#C[C@H](C)O)cc3C(=O)N([C@H](C)CO)C[C@@H]2C)cc1 | inactive | inactive | inactive
7 | C[C@@H]1CN([C@@H](C)CO)C(=O)c2cc(C#Cc3ccncc3)cnc2O[C@@H]1CN(C)C(=O)c1ccccc1F | inactive | inactive | inactive
8 | CCS(=O)(=O)Nc1ccc2c(c1)C(=O)N(C)[C@@H]1CC[C@@H](CC(=O)NCCCN3CCOCC3)O[C@H]1CO2 | inactive | inactive | inactive
9 | C[C@@H]1CN([C@@H](C)CO)S(=O)(=O)c2ccc(-c3cncnc3)cc2O[C@H]1CN(C)C(=O)Cc1ccncc1 | inactive | inactive | inactive
10 | Cc1noc(C)c1NC(=O)N(C)C[C@@H]1OCCCC[C@H](C)Oc2ccc(NC(=O)Nc3ccc(F)cc3)cc2C(=O)N([C@@H](C)CO)C[C@@H]1C | inactive | inactive | inactive
11 | O=C(C[C@H]1C[C@@H]2c3cc(NC(=O)Nc4ccc(C(F)(F)F)cc4)ccc3O[C@@H]2[C@H](CO)O1)NCc1ccc(Cl)cc1 | inactive | inactive | inactive
12 | Cc1cc(=O)nc(C)[nH]1 | inactive | inactive | inactive
13 | C[C@@H]1CN([C@@H](C)CO)C(=O)c2cc(NC(=O)Nc3ccc(C(F)(F)F)cc3)ccc2O[C@@H](C)CCCCO[C@H]1CN(C)C | inactive | inactive | inactive
14 | Cc1noc(C)c1NC(=O)N(C)C[C@H]1Oc2c(NC(=O)c3ccncc3)cccc2C(=O)N([C@H](C)CO)C[C@H]1C | inactive | inactive | inactive
15 | Cc1noc(C)c1S(=O)(=O)Nc1ccc2c(c1)C(=O)N([C@@H](C)CO)C[C@@H](C)[C@H](CN(C)S(=O)(=O)c1cn(C)cn1)O2 | inactive | inactive | inactive
16 | Brc1ccc(-c2ccc(C3CCCCC3)cn2)cc1 | inactive | inactive | inactive
17 | Nc1nc(F)nc2c1ncn2[C@@H]1O[C@H](COP(=O)(O)O)[C@@H](O)[C@@H]1O | inactive | inactive | inactive
18 | C[C@@H]1CN([C@@H](C)CO)C(=O)c2cc(NC(=O)c3ccncc3)ccc2O[C@H]1CN(C)C(=O)Nc1ccc2c(c1)OCO2 | inactive | inactive | inactive
19 | COc1ccc(S(=O)(=O)N2C[C@@H](O)COC[C@@H]3O[C@H](CC(=O)NCCN4CCCCC4)CC[C@H]32)cc1 | inactive | inactive | inactive
20 | COc1ccc(S(=O)(=O)Nc2ccc3c(c2)C(=O)N([C@@H](C)CO)C[C@H](C)[C@@H](CN(C)C(=O)Nc2ccc(F)cc2)OCCCC[C@@H](C)O3)cc1 | inactive | active | inactive

Row | SMILES | cytotoxicity call [1] | cytotoxicity call [2] | growth inhibition call [3]
21 | C[C@H]1CN([C@@H](C)CO)C(=O)c2cc(NC(=O)CCN3CCOCC3)ccc2O[C@H]1CN(C)S(=O)(=O)c1ccc(Cl)cc1 | inactive | inactive | inactive
22 | CC(=O)N[C@H](Cc1ccc2ccccc2c1)C(=O)N[C@H](Cc1ccc(Cl)cc1)C(=O)N[C@H](Cc1cccnc1)C(=O)N[C@@H](CO)C(=O)N[C@@H](Cc1ccc(O)cc1)C(=O)N[C@H](CCCNC(N)=O)C(=O)N[C@@H](CC(C)C)C(=O)N[C@@H](CCCNC(=N)N)C(=O)N1CCC[C@H]1C(=O)N[C@H](C)C(N)=O | inactive | inactive | inactive
23 | O=[N+]([O-])c1cc(N(CCO)CCO)ccc1NCCO | inactive | inactive | inactive
24 | CC(=O)NO | inactive | inactive | inactive
25 | C[C@@H]1CN([C@@H](C)CO)C(=O)Cc2cc(NC(=O)Cc3cn(C)c4ccccc34)ccc2O[C@H]1CN(C)Cc1ccc(-c2ccccc2)cc1 | inactive | inactive | inactive
26 | CCOC(=O)CCCCCC(=O)Nc1ccc2c(c1)C(=O)N([C@@H](C)CO)C[C@H](C)[C@H](CN(C)C(=O)Nc1ccc(F)cc1)OCCCC[C@H](C)O2 | inactive | inactive | inactive
27 | COc1ccc(NC(=O)Nc2ccc3c(c2)CC(=O)N([C@H](C)CO)C[C@@H](C)[C@@H](CN(C)Cc2ccc(C(=O)Nc4ccccc4N)cc2)O3)cc1 | inactive | active | inactive
28 | CCC(=O)N[C@H]1CC[C@@H](CC(=O)OC)O[C@H]1CO | inactive | inactive | inactive
29 | C[C@@H]1CCCCO[C@@H](CN(C)C(=O)Cc2ccccc2)[C@@H](C)CN([C@H](C)CO)C(=O)c2cc(NC(=O)Nc3ccccc3)ccc2O1 | inactive | inactive | inactive
30 | NCCC(O)C(=O)NC1CC(N)C(OC2OC(CN)C(O)C(O)C2O)C(O)C1OC1OC(CO)C(O)C(N)C1O.O (stereo not given) | inactive | inactive | inactive
31 | CC(C)=CCCC(C)=CCC1=C(C)C(=O)c2ccccc2C1=O | inactive | inactive | inactive
32 | CC(C)NC(=O)[C@@]1(c2ccc([N+](=O)[O-])cc2)CC(=O)N(CC23CC4CC(CC(C4)C2)C3)[C@@H]1c1ccc(CO)cc1I | inactive | active | inactive
33 | CO[C@@H]1CN(C)C(=O)c2cc(NS(=O)(=O)c3ccccc3C)ccc2OC[C@H](C)N(S(C)(=O)=O)C[C@H]1C | inactive | inactive | inactive
34 | C[C@@H]1CCCCO[C@H](CN(C)Cc2ccc(C(=O)O)cc2)[C@@H](C)CN([C@H](C)CO)C(=O)c2cc(NC(=O)Nc3ccccc3)ccc2O1 | inactive | inactive | inactive
35 | Cc1c(C(=O)Nc2ccc3ccccc3c2)oc2ccccc12 | inactive | active | inactive
36 | CC12C=CC(=O)C=C1CCC1C2C(=O)CC2(C)C1CCC2(O)C(=O)CO (stereo not given) | inactive | inactive | inactive
37 | C=CC(C1=CC(=O)C=CC1=O)c1ccccc1 (stereo not given) | inactive | active | inactive
38 | C[C@@H]1CN([C@@H](C)CO)S(=O)(=O)c2ccc(-c3ccc(F)cc3)cc2O[C@H]1CN(C)C(=O)C1CCOCC1 | inactive | inactive | inactive
39 | CN(C)CCCCCCNC(=O)[C@H]1C[C@H]2C(=O)N3CCC[C@H]3C(=O)N2[C@H]1c1cccc(OCCO)c1 | inactive | inactive | inactive
40 | COc1cccc(NC(=O)N2C[C@@H](O)COC[C@H]3O[C@@H](CC(=O)NCc4ccccc4F)CC[C@@H]32)c1 | inactive | inactive | inactive
